Among all 39,000 compounds or so, about 220 (0.56%) showed activity. The list shows a part of the results.
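Further: static incubation at 37 °C against the wild-type strain, values averaged over two biological replicates.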

This experiment has as its system Escherichia coli K-12 BW25113. Kind of experiment: relative growth (OD600 normalised to plate interquartile mean) (fraction); higher = less growth inhibition, active = 0.2 or less. The following applies: 50 µM; LB; incubation time: overnight (16-24 h).
On to `C[C@H](CO)N1C[C@H](C)[C@H](CN(C)Cc2ccc(Cl)c(Cl)c2)Oc2c(NC(=O)NC3CCCCC3)cccc2C1=O`, for which the relative growth is inactive: 1.02.

As to `O=C(C[C@H]1CC[C@H]2[C@@H](COC[C@@H](O)CN2Cc2cc(F)ccc2F)O1)N[C@H]1CCN(Cc2ccccc2)C1`, the relative growth was inactive: 0.997.

Turning to `COCCN1CCO[C@@H]2CN(Cc3cnn(C)c3)C[C@@H]21`, the relative growth was inactive: 0.99.

Regarding `Cc1noc(C)c1S(=O)(=O)Nc1ccc2c(c1)CC(=O)N([C@@H](C)CO)C[C@@H](C)[C@@H](CN(C)S(=O)(=O)c1ccccc1)O2`, the relative growth was inactive: 1.01. Then `O=C(O)c1ccoc1`, with inactive: 1.03; and `O=C(C[C@@H]1CC[C@@H]2[C@H](COC[C@@H](O)CN2C(=O)Nc2cccc(F)c2)O1)NCc1ccccc1Cl`, with inactive: 0.966. On to `CCS(=O)(=O)N1Cc2nccn2C[C@H](Cn2ncccc2=O)C1`, for which the relative growth was inactive: 1.01. As for `CC(C)NC(=O)N(C)C[C@H]1OCCCC[C@@H](C)Oc2ccc(NS(C)(=O)=O)cc2C(=O)N([C@@H](C)CO)C[C@@H]1C`, the relative growth was inactive: 0.968. Under `O=C(C[C@@H]1CC[C@H]2[C@@H](COC[C@H](O)CN2C(=O)Nc2ccc(Cl)cc2)O1)NC1Cc2ccccc2C1` stands inactive: 0.923. Under `CO[C@@H]1CN(C)C(=O)c2cc(NS(C)(=O)=O)ccc2OC[C@@H](C)N(S(C)(=O)=O)C[C@@H]1C` stands inactive: 1.04. Under `C[C@@H]1CN([C@H](C)CO)C(=O)Cc2cc(NC(=O)Nc3ccc(F)cc3)ccc2O[C@H]1CN(C)C(=O)Nc1ccc(C(F)(F)F)cc1` stands inactive: 0.993; under `C[C@@H]1CN([C@@H](C)CO)C(=O)c2cccc(NS(=O)(=O)c3ccc(F)cc3)c2O[C@H]1CN(C)C(=O)Nc1cccc2ccccc12`, inactive: 0.983; under `C[C@H](CO)N1C[C@H](C)[C@H](CN(C)S(=O)(=O)c2cn(C)cn2)Oc2ccc(NS(=O)(=O)c3ccc(F)cc3)cc2C1=O`, inactive: 1.01. With `C#CC1(O)CCC2C3CCC4=CC(=O)CCC4C3CCC21C` (stereo not given), the relative growth was inactive: 1.06.

Take `COc1ccc(S(=O)(=O)Nc2ccc3c(c2)C(=O)N([C@@H](C)CO)C[C@@H](C)[C@@H](CN(C)S(=O)(=O)c2ccc(F)cc2)O3)cc1`: the relative growth was inactive: 1.02. Then `C[C@@H]1CN([C@@H](C)CO)C(=O)c2cc(NC(=O)Nc3ccc(F)cc3)ccc2O[C@@H](C)CCCCO[C@@H]1CN(C)S(=O)(=O)c1ccccc1`, with inactive: 1.03; and `Cc1oc2ccccc2c1-c1csc(-c2ccccc2)n1`, with inactive: 1.02. For the molecule `C[C@@H]1CN([C@H](C)CO)C(=O)c2cccc(NC(=O)Nc3ccc(F)cc3)c2O[C@H]1CN(C)S(C)(=O)=O`, the relative growth is inactive: 0.978. Then `Cc1cccc2ccccc12`, with inactive: 0.998.

As for `CN1C(=O)CCC1c1cccnc1` (stereo not given), the relative growth is inactive: 1. With `COc1cccc(S(=O)(=O)N[C@H]2CC[C@H](CCn3cc(-c4ccccc4OC)nn3)O[C@@H]2CO)c1`, the relative growth is inactive: 1.01. For `C[C@H](CO)N1C[C@H](C)[C@@H](CN(C)Cc2ccccc2)OCCCC[C@H](C)Oc2ccc(NC(=O)Cc3ccccc3)cc2C1=O`, the relative growth was inactive: 1.01. Then `C[C@@H]1CN([C@H](C)CO)C(=O)Cc2cc(NC(=O)Nc3ccc(C(F)(F)F)cc3)ccc2O[C@H]1CN(C)Cc1ccc(C(F)(F)F)cc1`, with inactive: 1.06; and `Cc1noc(C)c1NC(=O)N[C@@H]1C=C[C@H](CC(=O)N2CCN(C)CC2)O[C@H]1CO`, with inactive: 0.997. Then `C[C@H](CO)N1C[C@H](C)[C@H](CN(C)CC2CCCCC2)Oc2ccc(NC(=O)Cn3cnnn3)cc2CC1=O`, with inactive: 0.965; and `C[C@H](NC(=O)C[C@H]1C[C@@H]2c3cc(NC(=O)Nc4ccc(C(F)(F)F)cc4)ccc3O[C@@H]2[C@@H](CO)O1)c1ccccc1`, with inactive: 0.982.

As for `COc1ccc(S(=O)(=O)Nc2ccc3c(c2)C(=O)N([C@H](C)CO)C[C@H](C)[C@H](CN(C)S(=O)(=O)c2ccc(OC)cc2)O3)cc1`, the relative growth is inactive: 0.995. For the molecule `COc1ccc(CN(C)C[C@H]2Oc3ccc(NC(=O)Cn4cnnn4)cc3C(=O)N([C@H](C)CO)C[C@H]2C)cc1`, the relative growth was inactive: 0.985. Take `Cc1ccc(S(=O)(=O)Nc2ccc3c(c2)C(=O)N([C@H](C)CO)C[C@H](C)[C@@H](CN(C)C(=O)CCC(F)(F)F)OCCCC[C@H](C)O3)cc1`: the relative growth was inactive: 1.02. Regarding `COC(=O)[C@H](Cc1ccccc1)N1C[C@](C)(OC(C)C)O[C@@H](CCn2cc(COc3ccccc3/C=C(C)/C=C/C(=O)NO)nn2)[C@@H]1/C=C/C1CC1`, the relative growth is inactive: 1.05.

Turning to `C[C@H](CO)N1C[C@H](C)[C@@H](CN(C)Cc2ccncc2)Oc2ccc(NC(=O)Nc3cccc4ccccc34)cc2CC1=O`, the relative growth is inactive: 0.922. With `CCN(CC)CCNc1nc(=O)[nH]nc1C`, the relative growth was inactive: 1.02. For `CCCNC(=O)Nc1ccc2c(c1)C(=O)N(C)C[C@H](OC)[C@H](C)CN(C(=O)C1CCOCC1)[C@@H](C)CO2`, the relative growth is inactive: 0.988. Then `Cc1ccc(S(=O)(=O)Nc2ccc3c(c2)C(=O)N(C)[C@@H]2CC[C@H](CC(=O)NCCc4ccncc4)O[C@@H]2CO3)cc1`, with inactive: 0.999; and `C[C@@H]1CN([C@H](C)CO)C(=O)c2cccc(NC(=O)c3ccc(-c4nccs4)cc3)c2O[C@H]1CN(C)S(=O)(=O)c1cn(C)cn1`, with inactive: 0.989; and `COc1ccc(S(=O)(=O)Nc2cccc3c2O[C@H](CN(C)S(=O)(=O)c2c(C)noc2C)[C@@H](C)CN([C@@H](C)CO)C3=O)cc1`, with inactive: 0.931.

For the molecule `COc1cccc(C(=O)Nc2ccc3c(c2)C(=O)N(C)[C@@H]2CC[C@@H](CC(=O)NCC(F)(F)F)O[C@@H]2CO3)c1`, the relative growth was inactive: 1.01.

Regarding `C[C@H](CO)N1C[C@H](C)[C@@H](CN(C)S(=O)(=O)c2ccc(Cl)cc2)OCCCC[C@H](C)Oc2ccc(NC(=O)NC3CCCCC3)cc2C1=O`, the relative growth is inactive: 1.04. Under `CC(C)C[C@@H]1NC(=O)[C@@H]2C[C@H](C(=O)NCCCCCNC(=O)CS)[C@H](c3ccc(O)cc3)N2C1=O` stands inactive: 0.813; under `COc1ccc(NC(=O)N(C)C[C@@H]2OCCCC[C@@H](C)Oc3ccc(NC(=O)Nc4ccc(F)cc4)cc3C(=O)N([C@H](C)CO)C[C@@H]2C)cc1`, inactive: 1.05.
